The structures appear in SMILES notation. Out of some 45,000 compounds screened, about 65 (0.1%) were called active. Calls come from the whole dose curve; as a rule, active = well fitted activation curve with a large enough effect; inconclusive = small, poorly fitted or top-dose-only effect; inactive = no such curve, though single readings can be large or run the other way. Some of the results follow.

This assay concerns the target Galactocerebrosidase (Homo sapiens) (UniProt P54803). As to the kind of experiment: A Novel Cell-Based Assay to Identify Small Molecules for B -Galactocerebrosidase. Note: 0% is about no effect; nearly all actives have a fitted effect of over 65% in size. To be noted: 145M-Twi-hGALC-G270D cells (Twitcher mouse brain line with human GALC G270D), HMU-beta-Gal fluorescence, 48 h; series mostly up to 57.5 µM; activation: at the top concentration. In short, it runs like this: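 Fluorogenic HMU-b-Gal hydrolysis (0.1 mM final, pH 5.2 citrate-phosphate with 1 mg/mL sodium taurocholate; carbonate stop buffer) measures mutant GALC activity after compound treatment of live 145M-Twi Twitcher brain cells stably carrying human GALC-G270D, with wild-type GALC line alongside; activation sought.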
Sequence of UniProt P54803 (P54803 whole entry, looked up): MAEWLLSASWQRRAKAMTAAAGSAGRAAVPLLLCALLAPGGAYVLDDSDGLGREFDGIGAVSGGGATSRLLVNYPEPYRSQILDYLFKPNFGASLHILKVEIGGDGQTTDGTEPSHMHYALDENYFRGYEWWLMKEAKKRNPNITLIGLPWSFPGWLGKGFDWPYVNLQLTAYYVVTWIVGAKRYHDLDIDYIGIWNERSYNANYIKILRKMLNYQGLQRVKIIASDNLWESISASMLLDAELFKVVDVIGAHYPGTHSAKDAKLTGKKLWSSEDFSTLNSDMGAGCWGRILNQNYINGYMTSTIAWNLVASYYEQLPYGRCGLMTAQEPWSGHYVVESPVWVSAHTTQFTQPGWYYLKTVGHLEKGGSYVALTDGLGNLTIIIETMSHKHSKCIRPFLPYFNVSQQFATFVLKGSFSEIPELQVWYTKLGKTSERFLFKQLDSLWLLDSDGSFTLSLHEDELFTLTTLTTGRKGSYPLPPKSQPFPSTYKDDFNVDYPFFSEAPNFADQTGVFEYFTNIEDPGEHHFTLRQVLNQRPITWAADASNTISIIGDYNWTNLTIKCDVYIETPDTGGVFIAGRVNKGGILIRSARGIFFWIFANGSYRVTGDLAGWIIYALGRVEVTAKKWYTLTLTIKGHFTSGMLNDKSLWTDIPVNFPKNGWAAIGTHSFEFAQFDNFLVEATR
In the case of `CC1=C(C(=O)OC2CCCCCC2)C(c2ccc(Cl)cc2)CC(=O)N1` (configuration not stated), the “activation” value is inactive: -1.4%.

As to `Cc1ccc2nc(-c3ccco3)c(Nc3ccc4c(c3)OCCO4)n2c1`, the “activation” value is inactive: -12.2%.

Regarding `CC(=O)Nc1ccc(NC(=O)C2Cc3ccccc3N2C(=O)c2ccccc2)cc1` (configuration not stated), the “activation” value was inactive: -12.6%.

For the compound `COc1ccc(Cn2c(CCC(=O)Nc3ccccc3OC)nc3cccnc32)cc1`, the “activation” value was inactive: -19.8%.

On to `Cc1oc2ccc(O)c(CN3CCCC(C)C3)c2c1C(=O)Nc1ccccc1` (configuration not stated), for which the “activation” value is inactive: -15.5%.

Consider `CC(C)OCCCn1c(=O)c2ccccc2n2c(-c3ccccc3F)nnc12`, for which the “activation” value was inactive: -13.9%.

For `COc1ccc2c(c1)c(=O)c(C(=O)c1ccc(Cl)cc1)cn2CC(=O)Nc1ccc2c(c1)OCCO2`, the “activation” value was inactive: 5.51%.

`O=C1CC2(CCCC2)CC(=O)N1CCCCN1CCN(c2ncccn2)CC1`: the “activation” value is inactive: -12.4%.

`CCc1c(C)nc2nc(-c3ccccc3)nn2c1NCc1ccc(C)cc1`: the “activation” value is inactive: -0.353%.

Consider `COc1cccc2[nH]c(C(=O)NCc3ccc4c(c3)CCN4C(=O)c3ccc(F)cc3)cc12`, for which the “activation” value is inactive: -15%.

On to `COc1ccc(CNC(=O)c2ccc(-c3nc(CS(=O)c4ccc(C)cc4)c(C)o3)cc2)cc1` (configuration not stated), for which the “activation” value was inactive: -2.55%.

Regarding `O=C(CCS(=O)(=O)c1cccc2nonc12)Nc1ccc(F)cc1F`, the “activation” value was inactive: -6.6%.

As to `Cc1ccc(-c2nnn3c2nc(NCc2ccc4c(c2)OCO4)c2ccccc23)cc1`, the “activation” value is inactive: -5.59%.

`COc1ccccc1N1CCN(C(=O)c2ccc3c(c2)CCN3S(=O)(=O)c2ccccc2)CC1`: the “activation” value is inactive: -11.8%.

With `Cc1oc(-c2ccccc2Cl)nc1CSc1nncn2c1cc1occc12`, the “activation” value was inactive: -13.3%.

Consider `COc1ccc(Br)cc1CNC(=O)Cn1ncn2nc(-c3cccs3)cc2c1=O`, for which the “activation” value is inactive: -19.8%.

As to `Cc1ccc(CNC(=O)C(C)n2c(=O)cc(-c3ccccc3)c3c(C)nn(C)c32)cc1` (configuration not stated), the “activation” value is inactive: -9.85%.

Regarding `Cc1ccc2nc(-c3c[nH]c4ccccc34)c(Nc3ccc(F)cc3)n2c1`, the “activation” value was inactive: 13%.

Regarding `O=C(NCCc1ccc(F)cc1)C(=O)NCC(c1cccs1)S(=O)(=O)c1ccccc1` (configuration not stated), the “activation” value was inactive: -25.8%.

In the case of `Cc1ccc(OCC(=O)Nc2nc(-c3ccc(Br)cc3)ns2)cc1`, the “activation” value was inactive: -11.9%.

Turning to `COc1ccccc1CNC(=O)c1ccc(CSc2nc3ccncc3n2Cc2cccc(F)c2)cc1`, the “activation” value was inactive: -16.2%.

`O=C(CC(c1cccs1)N1Cc2ccccc2C1=O)Nc1cccc(F)c1` (configuration not stated): the “activation” value was inactive: 7.34%.

Regarding `CCCn1ccc2c(OCC(=O)Nc3ccc(OC)c(OC)c3)cccc2c1=O`, the “activation” value was inactive: -6.07%.

For the compound `COc1ccc2c(Sc3ccccc3)c(C(=O)NCc3cc(Br)ccc3OC)[nH]c2c1`, the “activation” value was inactive: -17.9%.

As for `Cc1cccc(-c2nc(C)c(CCNC(=O)C(=O)Nc3ccc(C)c(C)c3)s2)c1`, the “activation” value is inactive: -18.6%.

For `CCOc1ccccc1CNc1nc2nc(C)c(CC(=O)OC)c(=O)n2[nH]1`, the “activation” value is inactive: -14.6%.

For `Cc1cccc(C(=O)Nc2ccc(S(=O)(=O)N3CCCCC3c3cccnc3)cc2)c1` (configuration not stated), the “activation” value is inactive: 3.79%.

On to `COc1ccc(Cl)cc1S(=O)(=O)N1CCN(C(=O)c2cc(-c3ccc(Br)cc3)n[nH]2)CC1`, for which the “activation” value is inactive: -5.37%.

For `Cc1ccc(-n2ncc3c(N4CCN(Cc5ccccc5)CC4)ncnc32)cc1`, the “activation” value is inactive: -16.8%.

Consider `Cc1cc(C)c(/C=C2\C(=O)Nc3ccccc32)[nH]1`, for which the “activation” value was inactive: -6.81%.

As for `O=C(CSc1nc(=O)[nH]c2c1CCC2)NCc1ccc(F)cc1`, the “activation” value was inactive: -9.02%.

Consider `CN/C(=C\[N+](=O)[O-])NCCSCc1csc(CN(C)C)n1`, for which the “activation” value is inactive: -14.3%.

With `O=C(CCc1ccccc1)N1CCc2c([nH]c3ccccc23)C1c1ccc(F)cc1` (configuration not stated), the “activation” value is inactive: 5.32%.

Take `CCCCNC(=O)c1sc2ncccc2c1-n1cccc1`: the “activation” value was inactive: -17%.

As for `O=C(CCCn1c(=O)c2ccccc2n(Cc2cccc(F)c2)c1=O)NCc1ccccc1Cl`, the “activation” value is inactive: -6.71%.

For `O=C(Nc1ccc(S(=O)(=O)N(Cc2ccccc2)c2ccccc2)cc1)c1ccc(F)cc1`, the “activation” value was inactive: -23.4%.

`COc1cc(CNc2ccc3[nH]c(=O)[nH]c3c2)cc(Cl)c1OCc1ccc(F)cc1`: the “activation” value is inactive: -16.5%.

Consider `COc1ccc(NC(=O)CN(c2ccc(C)cc2)S(=O)(=O)c2cccs2)cc1`, for which the “activation” value is inactive: -13.2%.

With `Cc1nn(C(C)(C)C)c(OC(=O)c2c(F)cccc2F)c1Sc1ccccc1`, the “activation” value is inactive: -9.08%.

Consider `Cc1cccc(NS(=O)(=O)c2ccc3c(c2)CCCN3C(=O)C2CCC2)c1C`, for which the “activation” value was inactive: -0.995%.

Consider `CN1C(=O)c2ccccc2Sc2ccc(NC(=O)c3ccc(C#N)cc3)cc21`, for which the “activation” value is inactive: -13.3%.

Consider `COC(=O)C(CCSC)NC(=O)c1cc2c(n(-c3ccccc3)c1=O)CC(C)(C)CC2=O` (configuration not stated), for which the “activation” value was inactive: -14.8%.

As for `Cc1cc2oc(C(=O)Nc3c(C)n(C)n(-c4ccccc4)c3=O)cc(=O)c2cc1C`, the “activation” value is inactive: -4.97%.

Take `CCOC(=O)Cn1c(=O)n(-c2ccc(Cl)cc2)c2nc(-c3ccc(Cl)cc3)nc(C(N)=O)c21`: the “activation” value was inactive: -12%.

Regarding `COc1ccc(CCNc2nc3c(c(=O)n(C)c(=O)n3C)n2Cc2ccccc2Cl)cc1OC`, the “activation” value is inactive: -19.9%.

Regarding `Cc1csc2nc(-c3cccc(NC(=O)c4c(F)cccc4F)c3)cn12`, the “activation” value is inactive: -18.8%.

Take `O=C(Cn1cc(S(=O)(=O)Cc2ccccc2F)c2ccccc21)NCc1ccccc1`: the “activation” value is inactive: 5.51%.

As to `O=C(Nc1ccc(C(=O)OCc2cc(=O)n3c4c(sc3n2)CCCC4)cc1)c1cccc(F)c1`, the “activation” value is inactive: -7.99%.

For `Cc1cccc(C(=O)Nc2ccccc2OCc2cc(=O)n3c(C)csc3n2)c1`, the “activation” value is inactive: -7.02%.

Consider `Cc1ccc2c(=O)cc(C(=O)Nc3nc4ccc(Cl)cc4s3)oc2c1`, for which the “activation” value is inactive: -13.9%.

For `COc1cc(OC)cc(N2C(=O)CSC23C(=O)Nc2ccccc23)c1` (configuration not stated), the “activation” value was inactive: -18.5%.

On to `COc1ccc(C(=O)OCc2cc(=O)n3nc(C4CC4)sc3n2)cc1OC`, for which the “activation” value was inactive: 1.66%.

Regarding `CCOc1ccc(Nc2c3c(nc4nncn24)CCC3)cc1`, the “activation” value was inactive: -11%.

For `CC(C)Oc1ccc(CNS(=O)(=O)c2ccc(-c3cc(C(F)(F)F)on3)s2)cc1`, the “activation” value was inactive: -11.8%.

In the case of `Cc1ccc(NC(=O)CCn2cnc3onc(-c4ccc(F)cc4)c3c2=O)c(Br)c1`, the “activation” value is inactive: -12.7%.

For the compound `Cc1ccc2nc(CN3CCN(S(=O)(=O)c4ccc(F)cc4)CC3)oc2c1`, the “activation” value is inactive: -16.4%.

With `Cc1ccc2oc(C(=O)Nc3ccc(S(=O)(=O)Nc4nc(C)cc(C)n4)cc3)cc(=O)c2c1`, the “activation” value was inactive: -9.2%.

Regarding `CCCNC(=O)CSc1cn(CC(=O)N2CCCCCC2)c2ccccc12`, the “activation” value is inactive: -14.6%.

As for `CCOc1ccc(-c2nnc(SCC(=O)Nc3cccc(Cl)c3C)o2)cc1`, the “activation” value is inactive: -13.2%.

For `O=C(CSc1nc2sc3c(c2c(=O)[nH]1)CCCC3)Nc1ccccc1F`, the “activation” value is inactive: -6.18%.

Take `COc1ccc(CCNC(=O)CCn2c(=O)c3ccccc3n(Cc3ccccc3C)c2=O)cc1OC`: the “activation” value was inactive: -6.93%.

As for `c1ccc(OCc2ccc(CCCN3CCOCC3)cc2)cc1`, the “activation” value is inactive: -6.7%.
